Data reported in PMC12136788.
Some of the results follow.

B1: chr6:106663037:106663138:+|CDS|ENSG00000130348|msi1|total|mutant (ssRNA)
RNA: GGGAGUUCUACAGUCCGACGAUCAGCACAGAAAGUGAGACGCCUCAUUGCUAAUGACUUUGUAAAUGCUUUUAACUCUGGAGCCGAUGUCUUGCUAACUCCCACCACCUUGAGUGAGGCAGUACCAUACUUGGAGUUCAUCAACAACAGAGGAUUGAGCAUCA
B2: chr10:128098466:128098636:-|3pUTR|ENSG00000148773|msi1|total|mutant (ssRNA)
RNA: GGGAGUUCUACAGUCCGACGAUCUCCUUUCCUUUCUGAAAAUAAAGUUUUGUGCUUUGGAGAAUGACUCGUGAGCACAUCUUCCGGGACCAAGAGUGACUUUCUGUAAGGAGUGACUCGUGGCUUGCCUUGGUCUCUUGGGAACAACAGAGGAUUGAGCAUCA
B3: chr6:133987709:133987810:+|3pUTR|ENSG00000028839|unk|FALSE|unique (ssRNA)
RNA: GGGAGUUCUACAGUCCGACGAUCAAUAACAAAUAGGAAUUUUUUUUCUUGCAGAUUAGAAAUAAAAACGUGUAUAUAAACUCUAGGGAACCAGACUAGAAGUUUAUAGAUAAAGGAUAAUGUUUUAUGUUGCUAAUUUAAUAUCAACAGAGGAUUGAGCAUCA
B4: chr17:50110931:50111032:+|3pUTR|ENSG00000005882|unk|FALSE|unique (ssRNA)
RNA: GGGAGUUCUACAGUCCGACGAUCUGUGCCCAGACAUGUGUGCUCAGGGUGGCUUUCUCCCUAGGACCUUCUGUGUAUAUAGUUAGUUUUAUAACCCUGAAUGCCCCCACCCUUCCCCUAAGCACACAGGGGUUAAAGCUGUGUCAACAGAGGAUUGAGCAUCA
B5: chr2:20282997:20283108:-|CDS|ENSG00000055917|unk|total|mutant (ssRNA)
RNA: GGGAGUUCUACAGUCCGACGAUCACUAAUCUGCAAUCUAAUUCAUUUUAUGGAAGCAGUUCUUUGACUAACCGCUCCCAGAGCCGUUCUUUAUUUUCUCAUGGACCUGGUCAACCUGGAAGUACAUCUCUUGGCUUUGGAAGUCAACAGAGGAUUGAGCAUCA
B6: chr9:96818597:96818698:-|CDS|ENSG00000196597|unk|total|mutant (ssRNA)
RNA: GGGAGUUCUACAGUCCGACGAUCGGAGAAACCAUUCGAAUGUCAUGAAUGUGGGAAAUCUUUUAACUAUAAGUCAAUCCUCACCGUGCAUCAGAGAACUCACACAGGGGAGAAACCUUUUGAAUGUAAUGAAUGCGGGAAAUCCAACAGAGGAUUGAGCAUCA
B7: chr22:16590879:16592550:-|CDS|ENSG00000198445|control|control|control (ssRNA)
RNA: GGGAGUUCUACAGUCCGACGAUCCCAAGGAUUUCGAGCAGUGGCUGAGGUGGUGCUACAGCUCGUGACUGUAGAUGAAAUCGUAGUGGCCAAGAAAAGUCCCACACAUCAGGAGAUCUGGAAUCCUGACUCUAAGAAGACAAACAACAGAGGAUUGAGCAUCA
B8: chr12:48653210:48654175:-|three_prime_utr|ENSG00000139620|control|control|control (ssRNA)
RNA: GGGAGUUCUACAGUCCGACGAUCGCACCAUUGUCUCAGAGUGGAUUGGCUACUGCAAAUGGGAAGCCAGAACCCACUUCUAUUAGUUGAUAGUUUGGGGAACCAUUUUACUUUGGUGGAUUUAAAUUUCUCGUUCUUCAAAGACAACAGAGGAUUGAGCAUCA
B9: chr9:77717828:77717929:-|3pUTR|ENSG00000156052|unk|FALSE|unique (ssRNA)
RNA: GGGAGUUCUACAGUCCGACGAUCGUGCCUCAUAUCUGAAACAAAGGGAAAUAACACACCCAUUCAAAAGUAAAUAAAUCUCCUAGAAGUUUUUGUUUUUAACAUUUCCAUAUAAAGAGCUCUGUUGAAUGUCAUGAAUAGACUCAACAGAGGAUUGAGCAUCA
B10: ENSG00000163697:stop:overlap|stop_codon|ENSG00000163697|stop_codon|NA|stop_codon (ssRNA)
RNA: GGGAGUUCUACAGUCCGACGAUCGAGGGGUCUUAUCCCUCAUUGACACUUUGAAACAGAAACGCCCUGUCACCGAAAUGCCAUAGCUGCACAUGCAAAAGGACUCGGCUAUUUACCUGAAGAUUGACUAGCUACACUAAAGAACAACAGAGGAUUGAGCAUCA
B11: ENSG00000136451:be:win_901|CDS|ENSG00000136451|bound_else_gene|NA|bound_elsewhere_windowed (ssRNA)
RNA: GGGAGUUCUACAGUCCGACGAUCAUCACCAGCCACUUAAAGACUCAUGGGCAGAGCCAAAGUAUCAACUGUAAUACAUGUAAACAAGGCAUCAGUAAAACAUGCAUGAGUGAAGAGACCAGUAACCAAAAGCAGCAGCAGCAGCAACAGAGGAUUGAGCAUCA
B12: chr6:52279506:52279615:-|CDS|ENSG00000112118|unk|FALSE|unique (ssRNA)
RNA: GGGAGUUCUACAGUCCGACGAUCUGAGUGUGGCAUUUUUAAGACAGGACGGAGAUCACUCUGUCCCUCUGUGUGCCUUUUUCUAGGAUGAGGAGAACAAUCCCCUUGAGACAGAAUAUGGCCUUUCUGUCUACAAGGAUCACCCAACAGAGGAUUGAGCAUCA
B13: chr17:69546800:69546959:+|3pUTR|ENSG00000108984|unk|total|mutant (ssRNA)
RNA: GGGAGUUCUACAGUCCGACGAUCUCAACUUCACCGGACUUUUUUUUUUUUUAACUUUUCAAAUGGAAGGUGCAGUUUUCAAUCCGGCCUCUGAAAAUUUACACCGUCAGAUGGAAAAAUGCCAGAGUAAAAUCCCGGAAGAAGCAACAGAGGAUUGAGCAUCA
B14: chr11:61403655:61403707:-|3pUTR|ENSG00000149532|msi1_unk|total|mutant (ssRNA)
RNA: GGGAGUUCUACAGUCCGACGAUCUGAAGUAACCAGGAGGAAUGGGGAAAGAAGCAAGUUGGGCAGGAUAUGGCCUACUUCCACCGGCUUUUCUUUUUUCAGGUUUGAUGUAAGCAUGGGCUUACAUCCCCCAGGUACAUACUUCAACAGAGGAUUGAGCAUCA

biological target: MSI1 full-length (mouse, UniProt Q61474 1-362); assay: nsRBNS (natural sequence RNA bind-n-seq); RBNS binding buffer (assumed for nsRBNS): 25 mM Tris pH 7.5, 150 mM KCl, 3 mM MgCl2, 0.01% Triton X-100, 500 ug/ml BSA, 20 U/ml SUPERase-In, 4 C; UNK is unkempt and MSI1 is Musashi-1; names of the RNAs are library labels; protein concentration not given here; high values mean tight binding
Sequence of UniProt Q61474 (Q61474 whole entry): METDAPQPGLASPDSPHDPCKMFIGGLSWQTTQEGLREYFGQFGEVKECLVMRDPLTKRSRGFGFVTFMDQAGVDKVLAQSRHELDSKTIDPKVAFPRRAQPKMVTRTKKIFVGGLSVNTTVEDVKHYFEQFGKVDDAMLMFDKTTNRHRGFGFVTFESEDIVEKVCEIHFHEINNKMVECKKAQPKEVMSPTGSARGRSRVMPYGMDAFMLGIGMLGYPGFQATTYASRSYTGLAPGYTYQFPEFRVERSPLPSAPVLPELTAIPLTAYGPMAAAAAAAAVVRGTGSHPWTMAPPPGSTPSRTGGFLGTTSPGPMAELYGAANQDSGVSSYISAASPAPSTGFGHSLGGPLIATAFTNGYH

Row | Binder | binding signal
1 | B1 | 0.409 enrichment R
2 | B2 | 0.344 enrichment R
3 | B3 | 1 enrichment R
4 | B4 | 9.31 enrichment R
5 | B5 | 0.305 enrichment R
6 | B6 | 0.442 enrichment R
7 | B7 | 0.612 enrichment R
8 | B8 | 0.61 enrichment R
9 | B9 | 1.17 enrichment R
10 | B10 | 0.618 enrichment R
11 | B11 | 0.732 enrichment R
12 | B12 | 0.251 enrichment R
13 | B13 | 0.258 enrichment R
14 | B14 | 0.369 enrichment R
